# ± gives the standard deviation of the averaged measurements. The list shows a part of the results.
# Tested on: PfAP2-EXP AP2 domain (GST-tagged)
# Assay: gcPBM binding intensity (ln(normalized median fluorescence intensity)); higher = stronger DNA binding
# In short: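 GST-fused DNA-binding domains of P. falciparum, expressed in E. coli, were applied at about 25 μg on average for 1 h to an Agilent 4 × 180k array of primer-extended double-stranded 36-bp intergenic genomic probes and negative controls. Binding intensity is the highest Masliner-normalised natural-log median intensity across replicate spots of either probe orientation, measured with Alexa488 anti-GST antibody and a 488 nm scan.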
row,Sequence,gcPBM binding intensity (ln)
1,AAAATGATGTTAATTACACACATCATCTCATAAACA [CACACA_site3017],8.28 ± 0.4
2,TGGAGGTCAGTTCACAGTACCCAGAAAACTCTACGA [XGTACX_site2561],8.44 ± 0.61
3,ATTATTTATTATTTCTGTACGTATAAAAATAACATT [XGTACX_site1671],8.71 ± 0.38
4,TAAATATCAAGACACACACACAAAAGTGAATAAATA [CACACA_site7723],8.78 ± 0.33
5,AGAGAAAAAAAAAATTGTACGTATGTAATAATATGC [XGTACX_site2981],8.96 ± 0.44
6,AGATATTATTTATATATTTATATATATATATAGATA [TGCATGCA_negctrl_site77],7.96 ± 0.23
7,TTCTTTTTAAATTACACACACATATATATATGTATA [CACACA_site3515],8.66 ± 0.28
8,AAAGTAAAAGAAAGCACACACACATGGATTTATGTA [CACACA_site5997],8.53 ± 0.49
9,TATATATATGTATGTGGTACTTATATTATATACATA [XGTACX_site4550],8.41 ± 0.19
10,TATTTACACCCATGCGCACACATAAATAAATAATAG [CACACA_site5350],8.82 ± 0.28
11,ACAGAAAATAAAATTTGTACATATATAGAATAAAGA [XGTACX_site3014],8.76 ± 0.4
12,ATACATATGGTGGATCGTACATATATATAATATGTA [XGTACX_site8631],8.71 ± 0.33
13,CCATGTAGTGAATAGGTGCATATCAAAAAAAAAAAA,8.67 ± 0.3
14,TTATACACAAAAAAAAAAATATATATATATATATAT [XGTACX_negctrl_site5],10.2 ± 0.61
15,TGTTGTATTGAAGCTAAAAAATGAGGCAAAAAAAAA [CACACA_negctrl_site1189],8.7 ± 0.49
16,ACTTCAAAAAAAAAAAAATATATATATATATATTAT [GTGCAC_negctrl_site158],8.21 ± 0.38
17,TTTATATAATATAAATTTTTTTTGCAGTAATAAAAA [TGCATGCA_negctrl_site570],8.25 ± 0.24
18,ATTTATGAGTAATACACACACTTGTGGATATATTAC [CACACA_site7735],8.4 ± 0.28
19,AAAAAAAAAAAATATTGTAGAATATGATGACTTTGT [GTGCAC_negctrl_site554],8.37 ± 0.51

row,Sequence,gcPBM binding intensity (ln)
1,TTTTAAATATGCCATACACACTACTATATAATAAAT [CACACA_site5119],8.58 ± 0.34
2,ATTTTATTTTCATATGAACACACATATATATATTAT [CACACA_site8741],9.15 ± 0.47
3,CTGCGTTTAATATGCGTGCACCTTGGTTTTATATCT [GTGCAC_site9525],9.16 ± 0.19
4,AACAACCAAAGGCACACACACAAAAAAAAAAATATA [CACACA_site399],8.4 ± 0.63
5,AAATTTCATGGGTATTGTACATAATTTTATTATATA [XGTACX_site4988],8.48 ± 0.37
6,TGATAAGGATGTGAATTACTCAAAGGAAGTAATCAT [CACACA_negctrl_site1432],8.38 ± 0.47
7,ACAAAACTGTCTTTCACACAGAAATAAAAAAAAAAA [CACACA_site5829],8.43 ± 0.59
8,ACATAAGATGAAAAATGTACATTCAAAAAATGAAAT [XGTACX_site3227],8.81 ± 0.3
9,TAAATATATAATAAATGTACATATTAATATTATGGT [XGTACX_site1498],8.71 ± 0.33
10,CAATGTTAACATATTACACACATATGTATTTATAAC [CACACA_site7314],8.67 ± 0.34
11,AAAAAAAATTTAATTGCACACAGGAAAATATAATTT [CACACA_site3810],8.61 ± 0.35
12,TAAATACAGAGGAAAATACACACGTATATATATAAA [CACACA_site3410],8.68 ± 0.37
13,TTAATACCCAGACACACACACACAAAATAAAATACA [CACACA_site7968],8.72 ± 0.63
14,TATAAATATACAAACACACATACAAACATATATATA [CACACA_site1120],8.86 ± 0.31
15,TTTTTTTAATGATATTGTACATTAATAAAAAATATG [XGTACX_site1719],8.27 ± 0.21
16,TCTTTTTCAAGATGACGTACTTAGATTAATATAAAA [XGTACX_site3931],8.36 ± 0.39
17,ATTTGATATATAATAATACACACTTACATAATTAAT [CACACA_site290],8.4 ± 0.32
18,ATATGATCATTTTATCATTTTGCTTTTTCTTTTTTT [CACACA_negctrl_site1325],8.77 ± 0.39
19,AATTTTGGAACGTGCACACATATGTAATATATATAT [CACACA_site3067],9.58 ± 0.085

row,Sequence,gcPBM binding intensity (ln)
1,ATCGTGTTAAATGTTGTGCACATATAAATTACAAAA [GTGCAC_site9822],9.06 ± 0.014
2,TTATATTCTTTTCTCTTTCTACTTTTTTTTTTTTTT [XGTACX_negctrl_site317],8.6 ± 0.59
3,AAGAAAAACTTATATATATATATATATATATATATA [TGCATGCA_negctrl_site466],10.3 ± 0.29
4,TCATACATGTATATGTGTACATATAATGTATATTCC [XGTACX_site6082],8.3 ± 0.3
5,AAAAAAAAAAAAAAAAGTACAAAAAGAAGAAAAAAA [XGTACX_site6521],8.63 ± 0.52
6,AAAATATAGGTATGCACACACATATACTTCTGTGCA [CACACA_site1409],8.63 ± 0.36
7,TTTTTTTTTTTTACGTGTACATAAATGTTAAGTAAT [XGTACX_site3901],8.64 ± 0.44
8,TTTTTTTTTTTTTTTTTTTTTTTATGTTCTTAAAAA [GTGCAC_negctrl_site62],8.02 ± 0.67
9,TATAAATATTTATGTACACACATATACATGTTGAAT [CACACA_site5684],8.64 ± 0.24
10,TACATATATATATTATGTACATAAGGTTTGAGTTCA [XGTACX_site2726],8.69 ± 0.45
11,GAAAAAAAAGCTTGCACACGTATTTGCTTTATGTAT [CACACA_site4931],8.64 ± 0.5
12,TTTTTGGTATTATTGTGTACTTATAAATAATATAAT [XGTACX_site4019],8.64 ± 0.4
13,CAAGTAGATATTATACGTACATATATATATATATAT [XGTACX_site8349],10.2 ± 0.32
14,ATATAAAATATTACGTGTACACATAAATAAAAATAA [XGTACX_site3746],8.83 ± 0.24
15,ATATTTTGTAACTATACACACATATTTATATTATAA [CACACA_site7433],8.39 ± 0.45
16,ATATATATAAATAATTGTACATAATAATAAAATATA [XGTACX_site4839],8.65 ± 0.44
17,TAAAAAATATACATTCGTACATATATATTATATATA [XGTACX_site7918],8.12 ± 0.25
18,TTTTATACATATTTTACACACTAAAATATACCTATA [CACACA_site6286],8.62 ± 0.4
